Source: ChEMBL document CHEMBL4888484, “Replenishing the malaria drug discovery pipeline: Screening and hit evaluation of the MMV Hit Generation Library 1 (HGL1) against asexual blood stage Plasmodium falciparum ,using a nano luciferase reporter read-out” (2022)
Among all 150,000 compounds or so, about 540 (0.36%) showed an effect of 50% or more. The list shows a part of the results.

The molecules below were run on Plasmodium falciparum (assay: Primary screen in NF54 nanoGlo assay, in single point, at 2uM, 72h; a lower Z score goes with more inhibition). Conditions: timepoint 72 hour.
Assay type: functional, Erythrocyte
In the case of `C[C@@H](CNc1cccc(F)c1C#N)c1nccs1`, the “% Inhibition” value is reported as -6% and the Z score is reported as 0.82. For `O=C(N[C@H]1CC(=O)N(CCOc2ccccc2)C1)C1CCC1`, the “% Inhibition” value was -9% and the Z score was 1.81. With `CN(C)C(=O)[C@]12CCS(=O)(=O)N(C)[C@@H]1CCN(C(=O)c1nccc3ccccc13)C2` the “% Inhibition” value was 5% and the Z score was -0.57. With `COCC(=O)Nc1cc(C(=O)N[C@H]2CCCc3ccccc32)c2c(c1)nc(-c1ccncc1)n2C` the “% Inhibition” value was -2% and the Z score was 0.23. With `COCCNC(=O)CCc1cn(-c2ccccc2)nc1-c1ccc2c(c1)OCO2` the “% Inhibition” value was -10% and the Z score was 1.35. `NC(=O)[C@@H]1CCCN1CCCc1ccccc1Br` was tested, and the “% Inhibition” value was -10% and the Z score was 1.04. In the case of `Nc1cc(COC(=O)C2CCCCC2)ccn1`, the “% Inhibition” value is reported as 1% and the Z score is reported as -0.22. In the case of `Cn1cc([C@@H]2CS(=O)(=O)CCCN2C(=O)c2cnc(NC3CC3)s2)cn1`, the “% Inhibition” value is reported as -13% and the Z score is reported as 2.08. For `CCC(C)(OC)c1noc(C2C[C@@H]3CC(=O)[C@H]2C3)n1` (stereo partly drawn), the “% Inhibition” value was -7% and the Z score was 0.72. With `CC(O)CC1CCCCCN1C(=O)CCc1cnccn1` (stereo not drawn) the “% Inhibition” value was -3% and the Z score was 0.6. With `CC1(C)CN(c2ccnc(C(N)=O)c2)CCc2ccccc21` the “% Inhibition” value was -18% and the Z score was 2.76. In the case of `O=C(Nc1ccc(F)c(C2CC2)c1)N1CCC[C@@H]1Cn1ccnc1`, the “% Inhibition” value is reported as -10% and the Z score is reported as 0.92. In the case of `COC[C@H]1CCCN(CC(=O)Nc2nnc(C)s2)C1`, the “% Inhibition” value is reported as -9% and the Z score is reported as 0.99. In the case of `Cc1cc(=O)c(C(=O)N2CC[C@@]3(CCCN(C4CCCCC4)C3=O)C2)c[nH]1`, the “% Inhibition” value is reported as -1% and the Z score is reported as 0.06. For `Cc1ccc(-c2ccc(C(=O)N(C)C)cc2)c(-n2cccn2)c1`, the “% Inhibition” value was -4% and the Z score was 0.71. `Cc1ncsc1C(=O)NC1CCOC1c1ccc(Cl)cc1` (stereo not drawn) was tested, and the “% Inhibition” value was 2% and the Z score was -0.27. In the case of `CCOC(=O)C1=CNS(=O)(=O)N=C1`, the “% Inhibition” value is reported as -11% and the Z score is reported as 1.29. For `CCS(=O)(=O)Oc1cc(CN(CC(C)C)C(=O)C(C)C)ccc1OC`, the “% Inhibition” value was -13% and the Z score was 1.27. With `CCN1C(=O)C2CN(C(=O)C(C)Oc3ccc(-c4ccccc4)cc3)CCN2C1=O` (stereo not drawn) the “% Inhibition” value was -2% and the Z score was 0.42. `COc1ccc(N2CCN(C(=O)CNc3ccccc3N3CCCCC3)CC2)cc1` was tested, and the “% Inhibition” value was -12% and the Z score was 2.27. For `Cc1occc1-c1cc(NC(=O)c2ccc(F)cc2)n(CCO)n1`, the “% Inhibition” value was 0% and the Z score was 0.05. `O=C(Cc1ccn(-c2ccccc2)n1)NC[C@@H]1CCC[C@H]1O` was tested, and the “% Inhibition” value was -13% and the Z score was 2.43. `Cc1cc(F)c(CC(=O)OCc2nc(C)c(C)o2)cc1F` was tested, and the “% Inhibition” value was 5% and the Z score was -1.04. In the case of `Oc1c(CN2CCOCC2)c(-c2ccccc2)nc2ccc(Cl)cc12`, the “% Inhibition” value is reported as -6% and the Z score is reported as 0.85. In the case of `CN(Cc1cscn1)C(=O)c1nn(Cc2ccccc2)c2c1CN(C(=O)c1cscn1)CC2`, the “% Inhibition” value is reported as -11% and the Z score is reported as 1.4. With `CN(Cc1ccco1)S(=O)(=O)c1ccc2c(c1)OC[C@@H](C(=O)N1CCCCC1)O2` the “% Inhibition” value was -18% and the Z score was 3.03. For `CC1CCC2=NN(C(=O)c3cccnc3)C(O)(C(F)(F)F)C2C1` (stereo not drawn), the “% Inhibition” value was -40% and the Z score was 4.74. In the case of `CCn1nc(C)c(CNc2nnc(C(F)(F)F)s2)c1C`, the “% Inhibition” value is reported as -15% and the Z score is reported as 2.77. `CC[C@@H](C(N)=O)N1CC(n2cccn2)C1` was tested, and the “% Inhibition” value was -3% and the Z score was 0.48. With `COc1ccc(NC(=O)C2C3CCC(CC3)C2C(=O)O)c(OC)c1` (stereo not drawn) the “% Inhibition” value was -9% and the Z score was 1.83. `CN1[C@@H](CO)C[C@@H](CNC(=O)c2cnn[nH]2)[C@H]1c1ccccc1F` was tested, and the “% Inhibition” value was -6% and the Z score was 0.88. With `Cc1ccnc(-n2nccc2NC(=O)N[C@H]2CCCOc3c(F)cccc32)c1` the “% Inhibition” value was -17% and the Z score was 1.7. For `CC1(C)C[C@H](NCC(=O)Nc2sccc2C#N)C(C)(C)O1`, the “% Inhibition” value was -4% and the Z score was 0.49. For `Cc1ccoc1C(=O)N1CCC(Oc2ccc3ncccc3c2)(C(=O)O)CC1`, the “% Inhibition” value was -14% and the Z score was 2.32. With `Cc1ccc2c(c1)c(CNC(=O)[C@@H]1CC=CCC1)nn2C` the “% Inhibition” value was -10% and the Z score was 1.25. In the case of `CCc1cnc(CN(C)S(=O)(=O)c2cc(Cl)cnc2N)s1`, the “% Inhibition” value is reported as -6% and the Z score is reported as 0.96. `COCCN(C(C)=O)c1nc(CN2Cc3c[nH]nc3[C@@H](C)C2)cs1` was tested, and the “% Inhibition” value was 2% and the Z score was -0.26. `CC(C)c1noc([C@H](C)N2CCc3[nH]c4ccccc4c3C2)n1` was tested, and the “% Inhibition” value was 3% and the Z score was -0.41. With `COc1ccc(CC(=O)Nc2cc(-c3nc4cccnc4s3)ccc2C)cc1OC` the “% Inhibition” value was 0% and the Z score was 0.05. For `O=C(c1cccnc1)N1CCC2(CC1)CN(C(=O)c1ccccc1)C[C@@H]2c1ncco1`, the “% Inhibition” value was -10% and the Z score was 1.44. `CCn1ccnc1CN1CCOc2c(O)cc(-c3ccc(Cl)cn3)cc2C1` was tested, and the “% Inhibition” value was -5% and the Z score was 0.94. For `Cc1ccc(OCC(=O)N2CCC(c3nc4ccccc4o3)CC2)cc1C`, the “% Inhibition” value was -18% and the Z score was 1.61. In the case of `Cc1cc(C(=O)N2CCOCC2(C)C)c(C)n1Cc1ccccn1`, the “% Inhibition” value is reported as -40% and the Z score is reported as 4.65. With `C=CCNC(=O)C[C@@H]1CCN(S(=O)(=O)c2ccccc2)C[C@@H]1CC` the “% Inhibition” value was 33% and the Z score was -3.78. `CCc1nsc(NCCCc2nc(C)no2)n1` was tested, and the “% Inhibition” value was -8% and the Z score was 1.49. For `COCc1nc([C@H]2CCOC2)cc(N2CCN(Cc3nccn3C)CC2)n1`, the “% Inhibition” value was -19% and the Z score was 2.52. For `CC[C@@H](CO)NCc1cccc(OC)c1OC`, the “% Inhibition” value was 1% and the Z score was -0.16. `CCC1CN(C(=O)C(C)C)CCC1NCc1ccc(OC)c(C#N)c1` (stereo not drawn) was tested, and the “% Inhibition” value was -7% and the Z score was 0.9. For `Clc1cccc(Cl)c1Cc1n[nH]c(CCCn2cccn2)n1`, the “% Inhibition” value was -14% and the Z score was 1.86. `O=C(Cn1nnnc1CN1CCCC1)N1CCN(c2ccc(F)cc2)CC1` was tested, and the “% Inhibition” value was -11% and the Z score was 1.62. For `Cc1cnc(C(=O)NC2C[C@H]3CC[C@@H](C2)N3C(=O)CCC2CCCC2)cn1` (stereo partly drawn), the “% Inhibition” value was 6% and the Z score was -0.98. In the case of `COc1ccc(C(F)(F)C(=O)Nc2cnns2)cc1`, the “% Inhibition” value is reported as -11% and the Z score is reported as 1.77. With `Cc1nc(CN(C(=O)c2onc3c2CCCC3)C(C)C)no1` the “% Inhibition” value was -13% and the Z score was 1.59. `COc1ccc(C(=O)N2CCc3ccc(C(=O)NCc4ccc5c(c4)OCO5)cc32)cc1` was tested, and the “% Inhibition” value was -7% and the Z score was 0.84.
